In the CheMixHub viscosity set:

Legend:
[1] = xn = mol fraction of the nth substance listed; conditions: 100 kPa, x2 = 0.5

| Structure (SMILES) | viscosity (303.15 K, 101 kPa) | viscosity (298.15 K, 101 kPa) | viscosity (313.15 K, 101 kPa) | viscosity (308.15 K, 101 kPa) | further results |
| --- | --- | --- | --- | --- | --- |
| Cc1ccccc1O | 6.323 ± 0.17 mPa·s [study A] and 6.125 ± 0.075 mPa·s [study B] and 6.043 ± 0.16 mPa·s [study C] and 7.479 ± 0.053 mPa·s [study D] | – | – | – | – |
| CCCCCC | – | 0.3046 ± 0.04 mPa·s, 0.3023 ± 0.003 mPa·s, 0.327 ± 0.026 mPa·s, 0.292 ± 0.003 mPa·s, 0.2919 ± 0.012 mPa·s, 0.34 ± 0.04 mPa·s, 0.2958 ± 0.008 mPa·s, 0.2958 ± 0.004 mPa·s, 0.299 ± 0.0038 mPa·s, 0.299 ± 0.003 mPa·s [several studies] | 0.26 ± 0.003 mPa·s [study A] and 0.2391 ± 0.0046 mPa·s [study B] and 0.257 ± 0.005 mPa·s [study C] and 0.262 ± 0.003 mPa·s [study D] | – | viscosity (298.15 K, 101.33 kPa): 0.2979 ± 0.0035 mPa·s, 0.3096 ± 0.0033 mPa·s, 0.3092 ± 0.0033 mPa·s, 0.298 ± 0.003 mPa·s, 0.298 ± 0.01 mPa·s (2×), 0.311 ± 0.01 mPa·s, 0.2987 ± 0.0097 mPa·s, 0.2987 ± 0.005 mPa·s, 0.302 ± 0.003 mPa·s, 0.318 ± 0.004 mPa·s [several studies]; viscosity (303.15 K, 101.33 kPa): 0.278 ± 0.007 mPa·s [study A] and 0.2977 ± 0.0034 mPa·s [study B] and 0.2759 ± 0.0033 mPa·s [study C] and 0.285 ± 0.009 mPa·s [study D] and 0.296 ± 0.01 mPa·s [study E] and 0.285 ± 0.01 mPa·s [study F] and 0.287 ± 0.003 mPa·s [study G] and 0.303 ± 0.004 mPa·s [study H]; viscosity (308.15 K, 101.33 kPa): 0.2709 ± 0.0032 mPa·s [study A] and 0.284 ± 0.009 mPa·s [study B] and 0.271 ± 0.003 mPa·s [study C] and 0.273 ± 0.01 mPa·s [study D] and 0.274 ± 0.002 mPa·s [study E] and 0.288 ± 0.004 mPa·s [study F] |
| C=CC(=O)OC | 0.4197 ± 0.017 mPa·s [study A] and 0.428 ± 0.009 mPa·s [study B] and 0.433 ± 0.07 mPa·s [study C] and 0.42 ± 0.007 mPa·s [study D] | 0.4602 ± 0.019 mPa·s [study A] and 0.449 ± 0.007 mPa·s [study B] and 0.465 ± 0.01 mPa·s [study C] and 0.46 ± 0.07 mPa·s [study D] and 0.461 ± 0.008 mPa·s [study E] | 0.355 ± 0.015 mPa·s [study A] and 0.36 ± 0.01 mPa·s [study B] and 0.395 ± 0.07 mPa·s [study C] and 0.357 ± 0.007 mPa·s [study D] | 0.3856 ± 0.016 mPa·s [study A] and 0.39 ± 0.007 mPa·s [study B] and 0.392 ± 0.008 mPa·s [study C] and 0.414 ± 0.07 mPa·s [study D] and 0.384 ± 0.007 mPa·s [study E] | – |
| CC(C)CO | 2.849 ± 0.027 mPa·s [study A] and 2.942 ± 0.031 mPa·s [study B] and 2.89 mPa·s [study C] and 2.635 ± 0.032 mPa·s [study D] and 2.845 ± 0.02 mPa·s [study E] | 3.556 ± 0.048 mPa·s [study A] and 3.295 ± 0.03 mPa·s [study B] and 3.38 mPa·s [study C] and 3.291 ± 0.02 mPa·s [study D] and 3.36 ± 0.027 mPa·s [study E] and 3.38 ± 0.042 mPa·s [study F] | – | 2.455 ± 0.025 mPa·s [study A] and 2.453 ± 0.023 mPa·s [study B] and 2.52 ± 0.027 mPa·s [study C] and 2.47 mPa·s [study D] | viscosity (308.15 K, 101.3 kPa): 2.316 ± 0.034 mPa·s [study A] and 2.317 ± 0.029 mPa·s [study B] and 2.426 ± 0.055 mPa·s [study C] and 2.426 ± 0.015 mPa·s [study D] |
| C=CC(=O)OCCCC | – | 0.8385 ± 0.034 mPa·s [study A] and 0.787 ± 0.008 mPa·s [study B] and 0.806 ± 0.07 mPa·s [study C] and 0.838 ± 0.011 mPa·s [study D] | – | 0.7306 ± 0.03 mPa·s [study A] and 0.684 ± 0.008 mPa·s [study B] and 0.703 ± 0.07 mPa·s [study C] and 0.73 ± 0.01 mPa·s [study D] | – |
| O=C(O)C(=O)O + C[N+](C)(C)CCO.[Cl-] | – | – | – | – | viscosity ([1]; 303.15 K): 5363 ± 380 mPa·s [study A] and 398.6 ± 19 mPa·s [study B]; viscosity ([1]; 313.15 K): 2142 ± 130 mPa·s [study A] and 223.3 ± 9.9 mPa·s [study B]; viscosity ([1]; 323.15 K): 971.1 ± 53 mPa·s [study A] and 136.7 ± 5.8 mPa·s [study B] |

± gives the uncertainty stated by the source. Not every entry of the source has a single result; some have several. This list holds those alone. An entry can have further records. The records of an entry are repeats (runs, samples, wells, individuals or studies). Brackets tell where a record comes from. Letters count within one entry. Counts like (3×) stand for listed records that agree.
